Test results taken from PubChem BioAssay AID1347073 (National Center for Advancing Translational Sciences (NCATS), 2019).
In all, about 45,000 compounds went through this assay and about 200 (0.44%) were called active. About 7% were inconclusive and are not listed. Calls follow the shape of the dose curve; as a rule, active = well fitted activation curve with a large enough effect; inconclusive = small, poorly fitted or top-dose-only effect; inactive = no such curve, though single readings can be large or run the other way. The list shows a part of the results.

Assay: qHTS of TDP-43 Inhibitors: NCGC Sytravon Library Screen; also: 0% is about no effect; nearly all actives have a fitted effect of over 55% in size
Conditions: yeast TDP-43 toxicity rescue, BacTiter-Glo growth, 24 h; series mostly up to 46.1 µM; growth rescue (activation): at the top concentration
Excerpt: The goal of this project is to identify new chemical probes capable of reversing the toxicity associated with TDP-43 which is associated with frontotemporal lobar degeneration and amyotrophic lateral sclerosis. These compounds will provide a complementary approach to deciphering the tangled mechanisms of toxicity and protection that we have uncovered through genome-wide genetic screens and are beginning to uncover in a large-scale proteomics analysis with mass spectroscopy. To this end, a miniaturized assay was developed to be screened against the Molecular Libraries Small Molecule Repository (MLSMR) to discover TDP-43 inhibitors. Please note that in the set-up this yeast-based assay compounds that inhibit as TDP-43, have a read-out as activators. NIH Chemical Genomics Center [NCGC] NIH Molecular Libraries Probe Centers Network [MLPCN] Assay Submitter (PI): Susan Lindquist, Whitehead Institute/MIT MLPCN Grant: R21 NS060957
Dispense 2.5 microL yeast galactose medium per 1536-well plate, pin compound, dispense 2.5 microL TDP-43 expressing yeast in galactose medium at OD600=0.02 (pregrown in raffinose medium to mid-log phase) per well, incubate for 24 hr at 30 deg C, and cell growth will be measured using 5 microL of Bactiter/Glo reagent to entire plate and read using Luminescence Protocol in ViewLux.

SMILES | growth rescue (activation)
CCN(CC)CCCN1C(=O)C(O)=C(C(=O)c2ccc(C)o2)C1c1ccc(C)o1 (stereo not given) | inactive: -9.41%
O=C1C=C(N2CCOCC2)c2ccccc2C1=O | inactive: -7.79%
O=C(O)C1CC=C(Cl)CC1C(=O)NCC1OCCc2ccccc21 (stereo not given) | inactive: 11%
COC(=O)C1(O)CC(C(C)C)=NN1C(=O)c1ccccc1 (stereo not given) | inactive: 4.18%
C/C(=N\NC(=S)NC1CCCCC1)c1ccccc1 | inactive: 17.2%
NS(=O)(=O)c1cc(C(=O)Nc2ccc3c(c2)OCCCO3)ccc1Cl | inactive: 6.37%
CCOc1cccc(/C=C/c2ccc3cccc(O)c3n2)c1O | inactive: 2.18%
Cc1ccc(OCC(=O)Nc2ccc3c(c2)OC(F)(F)O3)c([N+](=O)[O-])n1 | inactive: 6.62%
CCCNS(=O)(=O)c1cc2c(cc1Br)CCN2C(=O)CC | inactive: 0.283%
COc1ccc(CN(CC(=O)NCC2CCCO2)C(=O)CNS(=O)(=O)c2ccccc2)cc1 (stereo not given) | inactive: 5.37%
Cc1cccc(OCCCC(=O)Nc2ccc(S(N)(=O)=O)cc2)c1C | inactive: 6.31%
Cc1ccccc1C1c2[nH]c3ccccc3c2C[C@H]2C(=O)N(C3CC3)CC(=O)N12 (stereo not given in full) | inactive: 1.42%
CC(=O)NS(=O)(=O)c1ccc(NC(=O)CSc2ccc(Cl)cc2)cc1 | inactive: -3.86%
Cc1ccc(Cn2c(O)c(N=NC(=S)Nc3ccccc3F)c3ccccc32)cc1 | inactive: 16.3%
O=C1CCCN2N=C(SCC(=O)Nc3ccc(F)cc3F)SC2=N1 | inactive: 14.9%
COc1cccc(NC(=O)Nc2ccccc2Br)c1 | inactive: 4.77%
C=CC[n+]1c(-c2ccc(C)cc2)csc1Nc1ccc(NC(C)=O)cc1 | inactive: 16.8%
COc1cc(/C=N/n2c(-c3cc(C)[nH]n3)n[nH]c2=S)cc(OC)c1O | inactive: -2.08%
CC(/C=C/c1ccco1)=N\NC(=O)c1cc(Cl)ccc1O | inactive: 4.68%
COc1ccc(CNC(=O)CN(C(=O)c2csnn2)c2cccc3ccccc23)cc1 | inactive: 8.81%
CCOC(=O)c1ccc(NC(=O)c2cccc(S(=O)(=O)N3CCN(C(C)=O)CC3)c2)cc1 | inactive: 3.69%
Cc1noc(C)c1COC(=O)c1cc(S(=O)(=O)N2CCOCC2)ccc1Cl | inactive: -3.51%
O=C(NN(C(=O)c1ccccc1)c1ccccc1)c1ccccc1 | inactive: 22.4%
NC1=NC(=O)/C(=C\c2cccnc2)S1 | inactive: -12.2%
O=C(O)c1cccc(Cn2c(Cl)c(/C=N/NC(=O)c3cccc(O)c3)sc2=O)c1 | inactive: 5.71%
CC(c1ccccc1)N1CCC(CNC(=S)Nc2cccc(Cl)c2)C1 (stereo not given) | inactive: 1.2%
Cc1cc(C)c2c(CN3CCCCC3)cc(=O)oc2c1 | inactive: -1.02%
Cc1ccccc1C(=O)NNC(=O)C1CCN(c2ncccn2)CC1 | inactive: 0.889%
NC(c1ccccc1)c1cccnc1 (stereo not given) | inactive: 2.65%
Cc1sc2nc(COC(=O)c3cccc(OC(F)F)c3)[nH]c(=O)c2c1C | inactive: 20.8%
